Binding data for 4 molecules are collected here from paper PMC7399486.

The chains behind the UniProt entries cited, without tags or fusion partners.
UniProt P61586: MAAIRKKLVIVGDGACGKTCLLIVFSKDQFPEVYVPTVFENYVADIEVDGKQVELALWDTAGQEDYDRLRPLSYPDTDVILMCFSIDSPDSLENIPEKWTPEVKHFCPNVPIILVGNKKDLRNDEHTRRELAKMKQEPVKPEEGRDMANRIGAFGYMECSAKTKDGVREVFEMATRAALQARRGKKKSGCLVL

Common to all, as to test: co-IP; lysates (RIPA buffer) of HEK293T cells transiently co-expressing the two tagged proteins, 24 h after transfection; anti-FLAG M2 agarose beads or anti-HA magnetic beads as indicated; Western blot
One assay has as its target HA-tagged RhoA (human) (UniProt P61586).
The target in the next assay is FLAG-tagged RhoA (human) (UniProt P61586).
The target in another assay is T1, HA-tagged GEF-H1 (human) (UniProt Q92974).
T1 sequence: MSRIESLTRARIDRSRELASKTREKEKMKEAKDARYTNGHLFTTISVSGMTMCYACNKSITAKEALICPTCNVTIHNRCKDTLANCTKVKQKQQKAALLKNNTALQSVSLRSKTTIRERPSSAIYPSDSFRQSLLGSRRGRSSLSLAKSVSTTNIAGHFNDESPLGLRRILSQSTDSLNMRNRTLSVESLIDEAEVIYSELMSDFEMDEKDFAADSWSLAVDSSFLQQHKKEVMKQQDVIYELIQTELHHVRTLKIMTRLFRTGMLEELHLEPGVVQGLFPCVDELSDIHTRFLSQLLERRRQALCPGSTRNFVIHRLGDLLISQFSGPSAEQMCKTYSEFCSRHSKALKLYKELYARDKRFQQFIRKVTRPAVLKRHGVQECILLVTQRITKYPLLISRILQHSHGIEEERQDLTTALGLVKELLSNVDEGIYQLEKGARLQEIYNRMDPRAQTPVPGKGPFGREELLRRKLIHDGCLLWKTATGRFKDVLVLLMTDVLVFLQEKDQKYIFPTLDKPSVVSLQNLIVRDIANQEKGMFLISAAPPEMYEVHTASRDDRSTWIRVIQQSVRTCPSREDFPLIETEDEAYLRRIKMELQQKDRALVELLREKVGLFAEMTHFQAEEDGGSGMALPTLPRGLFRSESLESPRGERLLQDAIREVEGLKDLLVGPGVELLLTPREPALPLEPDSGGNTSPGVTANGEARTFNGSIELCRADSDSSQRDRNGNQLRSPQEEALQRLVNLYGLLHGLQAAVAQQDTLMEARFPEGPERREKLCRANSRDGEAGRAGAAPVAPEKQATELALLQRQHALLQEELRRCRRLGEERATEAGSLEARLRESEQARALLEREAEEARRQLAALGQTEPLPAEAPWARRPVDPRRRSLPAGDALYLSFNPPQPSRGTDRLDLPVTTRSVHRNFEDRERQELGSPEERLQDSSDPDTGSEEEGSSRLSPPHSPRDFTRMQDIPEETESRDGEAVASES

These are yes or no findings as the source states them, for the method shown. Binding seen in cells or lysates may run through a third protein. Some entries that bind do so weakly or less than the wild type. Where a sequence is shown, tags or fusion partners need not be part of it.

B1: FLAG-tagged BNIP-2-ΔRBD (protein, UniProt Q12982)
chain: MEGVELKEEWQDEDFPIPLPEDDSIEADILAITGPEDQPGSLEVNGNKVRKKLMAPDISLTLDPSDGSVLSDDLDESGEIDLDGLDTPSENSNEFEWEDDLPKPKTTEVIRKGSITEYTAAEEKEDGRRWRMFRIGEQDHRVDMKAIEPYKKVISHGGYYGDGLNANGATTRRKMPSLGWLRKCYQQIDRRLRKNLKSLIIVHPSWFIRTLLAVTRPFISSKFSQKIRYVFNLAELAELVPMEYVGIPECIKQVDQELNGKQDEPKNEQ
For B1, the binding result with HA-tagged RhoA (human) is given as “no binding”.

B2: HA-tagged BNIP-2 (protein, UniProt Q12982 1-314)
chain: MEGVELKEEWQDEDFPIPLPEDDSIEADILAITGPEDQPGSLEVNGNKVRKKLMAPDISLTLDPSDGSVLSDDLDESGEIDLDGLDTPSENSNEFEWEDDLPKPKTTEVIRKGSITEYTAAEEKEDGRRWRMFRIGEQDHRVDMKAIEPYKKVISHGGYYGDGLNAIVVFAVCFMPESSQPNYRYLMDNLFKYVIGTLELLVAENYMIVYLNGATTRRKMPSLGWLRKCYQQIDRRLRKNLKSLIIVHPSWFIRTLLAVTRPFISSKFSQKIRYVFNLAELAELVPMEYVGIPECIKQVDQELNGKQDEPKNEQ
With B2, the binding entry in the assay with FLAG-tagged RhoA (human) is reported as “binds”.

B3: FLAG-tagged BNIP-2-FL (protein, UniProt Q12982 1-314)
chain: B2 chain
On to B3, for which the binding entry with HA-tagged RhoA (human) was “binds”.

B4: GFP-tagged BNIP-2 (full length) (protein, UniProt Q12982 1-314)
chain: B2 chain
Turning to B4, the binding entry in the assay with HA-tagged GEF-H1 (human) and with HA-tagged RhoA (human) was “binds” in each case.
